Reference: PubChem BioAssay AID1347417 (National Center for Advancing Translational Sciences (NCATS), 2020)
The whole screen tested about 120,000 compounds, of which about 5,300 (4.4%) were called active. Inconclusive means that the source gave no clear call. Such entries were picked first, then a sample of the others. Calls follow the shape of the dose curve; as a rule, active = well fitted inhibition curve with a large enough effect; inconclusive = small, poorly fitted or top-dose-only effect; inactive = no such curve, though single readings can be large or run the other way. Potencies of inconclusive entries are doubtful fits and often do not repeat.

Test: qHTS Primary assay for Inhibitors of Plasmodium falciparum Dd2 growth in vitro; also: nearly all actives have a fitted effect of over 65% in size
Details: P. falciparum Dd2 growth, SYBR Green, 72 h; series mostly up to 28.9 µM
Procedure, shortened: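 Infected erythrocytes (Dd2, 0.3% parasitemia, 2.5% hematocrit final) are added to compound in RPMI-1640/Albumax II medium, grown 72 h at 37C in low oxygen, then lysed with saponin/Triton-X containing SYBR Green and read by fluorescence.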
Potency is read from the fitted curve at half-maximal effect; tags tell the direction and shape of the fitted curve.

Structure (SMILES)	Potency
Cc1ccncc1C(=O)N1CCn2c(nnc2[C@@H]2C[C@@H](O)CN2Cc2ccccc2)C1	inactive
CNC(=O)[C@@H]1CN(S(=O)(=O)c2c(C)noc2C)C[C@H]1c1n[nH]c(C)n1	inactive
CCOc1ccc(CC(=O)Nc2cccc(-c3nnc4n3CCCC4)c2)cc1	inconclusive: 2000 nM [inhibitor, partial curve]
COc1ccc(/C=C(\C#N)c2nc3ccccc3c(=O)[nH]2)cc1OC	inconclusive: 5620 nM [inhibitor, partial curve, poor fit]
COc1ccc(-c2cc3nc4c(c(=O)n3[nH]2)CN(C(=O)CCCc2nc3ccccc3s2)CC4)cc1	inconclusive: 316 nM [inhibitor, partial curve, poor fit]
O=C(NCc1ccc(F)cc1)C1CCN(C(=O)c2ncn3c2COC(c2ccccc2)C3)CC1 (stereo not drawn)	inactive
COc1cccc(C(=O)N2CCC(n3cc(-c4nc(C)no4)nn3)C2)c1 (stereo not drawn)	inconclusive: 1120 nM [inhibitor, partial curve, poor fit]
O=C(NC1CCCCC1)c1ccc2c(c1)N(Cc1ccccc1Cl)C(=O)c1ccccc1S2	inconclusive: 11200 nM [inhibitor, single point]
O=C(CC1CCCC1)N1CC[C@@H]2COCCN(Cc3ccccc3)[C@@H]2C1	inconclusive: 17800 nM [inhibitor, partial curve, poor fit]
O=C(NCc1ccco1)c1ccc(Cn2c(SCc3ccccc3F)nc3cccnc32)cc1	inconclusive: 17800 nM [inhibitor, single point]
COCCCN1CC2(CCC1=O)CCN(C(=O)C1CCCCn3nnnc31)CC2 (stereo not drawn)	inactive
COCCN1CCCCCC(O)c2cc(C(=O)NCCN3CCCCC3)ccc21 (stereo not drawn)	inconclusive: 11200 nM [inhibitor, single point]
O=C(CSc1ncccc1C(=O)Oc1ccccc1Cl)Nc1ccccc1Cl	inconclusive: 12600 nM [inhibitor, single point]
COc1ccc(CC(=O)N[C@@H]2CN(c3ccccn3)C[C@H]2CN(C)C)cc1	inconclusive: 794 nM [inhibitor, full curve, poor fit]
Cn1nnnc1SCCCNCc1cccc(OCc2ccccc2)c1	inconclusive: 1780 nM [inhibitor, full curve, poor fit]
COc1cc2c(cc1OCC1CC1)NC(=O)C21CCN(c2ccnc(C)n2)CC1	inconclusive: 794 nM [inhibitor, single point]
O=C(O)C1c2nc[nH]c2CCN1C(=O)CCCn1ccnc1 (stereo not drawn)	inactive
CC(C)OCc1cc(CN2CCN(c3cccc(C(F)(F)F)c3)CC2)c(O)c2ncccc12	active: 1410 nM
